The whole screen tested about 360,000 compounds, of which about 16,000 (4.4%) were called active. Inconclusive means that the source gave no clear call. Such entries were picked first, then a sample of the others. Calls come from the whole dose curve; as a rule, active = well fitted inhibition curve with a large enough effect; inconclusive = small, poorly fitted or top-dose-only effect; inactive = no such curve, though single readings can be large or run the other way. Where the call is inconclusive, the potency comes from a doubtful curve fit.
The compounds below were run against Bromodomain adjacent to zinc finger domain protein 2B (Homo sapiens) (UniProt Q9UIF8) (assay: qHTS Assay for Inhibitors of BAZ2B). Conditions: AlphaScreen BAZ2B-H3K14Ac peptide displacement; series mostly up to 114 µM.
UniProt Q9UIF8, sequence (Q9UIF8 whole entry, looked up, the tested form may be a part): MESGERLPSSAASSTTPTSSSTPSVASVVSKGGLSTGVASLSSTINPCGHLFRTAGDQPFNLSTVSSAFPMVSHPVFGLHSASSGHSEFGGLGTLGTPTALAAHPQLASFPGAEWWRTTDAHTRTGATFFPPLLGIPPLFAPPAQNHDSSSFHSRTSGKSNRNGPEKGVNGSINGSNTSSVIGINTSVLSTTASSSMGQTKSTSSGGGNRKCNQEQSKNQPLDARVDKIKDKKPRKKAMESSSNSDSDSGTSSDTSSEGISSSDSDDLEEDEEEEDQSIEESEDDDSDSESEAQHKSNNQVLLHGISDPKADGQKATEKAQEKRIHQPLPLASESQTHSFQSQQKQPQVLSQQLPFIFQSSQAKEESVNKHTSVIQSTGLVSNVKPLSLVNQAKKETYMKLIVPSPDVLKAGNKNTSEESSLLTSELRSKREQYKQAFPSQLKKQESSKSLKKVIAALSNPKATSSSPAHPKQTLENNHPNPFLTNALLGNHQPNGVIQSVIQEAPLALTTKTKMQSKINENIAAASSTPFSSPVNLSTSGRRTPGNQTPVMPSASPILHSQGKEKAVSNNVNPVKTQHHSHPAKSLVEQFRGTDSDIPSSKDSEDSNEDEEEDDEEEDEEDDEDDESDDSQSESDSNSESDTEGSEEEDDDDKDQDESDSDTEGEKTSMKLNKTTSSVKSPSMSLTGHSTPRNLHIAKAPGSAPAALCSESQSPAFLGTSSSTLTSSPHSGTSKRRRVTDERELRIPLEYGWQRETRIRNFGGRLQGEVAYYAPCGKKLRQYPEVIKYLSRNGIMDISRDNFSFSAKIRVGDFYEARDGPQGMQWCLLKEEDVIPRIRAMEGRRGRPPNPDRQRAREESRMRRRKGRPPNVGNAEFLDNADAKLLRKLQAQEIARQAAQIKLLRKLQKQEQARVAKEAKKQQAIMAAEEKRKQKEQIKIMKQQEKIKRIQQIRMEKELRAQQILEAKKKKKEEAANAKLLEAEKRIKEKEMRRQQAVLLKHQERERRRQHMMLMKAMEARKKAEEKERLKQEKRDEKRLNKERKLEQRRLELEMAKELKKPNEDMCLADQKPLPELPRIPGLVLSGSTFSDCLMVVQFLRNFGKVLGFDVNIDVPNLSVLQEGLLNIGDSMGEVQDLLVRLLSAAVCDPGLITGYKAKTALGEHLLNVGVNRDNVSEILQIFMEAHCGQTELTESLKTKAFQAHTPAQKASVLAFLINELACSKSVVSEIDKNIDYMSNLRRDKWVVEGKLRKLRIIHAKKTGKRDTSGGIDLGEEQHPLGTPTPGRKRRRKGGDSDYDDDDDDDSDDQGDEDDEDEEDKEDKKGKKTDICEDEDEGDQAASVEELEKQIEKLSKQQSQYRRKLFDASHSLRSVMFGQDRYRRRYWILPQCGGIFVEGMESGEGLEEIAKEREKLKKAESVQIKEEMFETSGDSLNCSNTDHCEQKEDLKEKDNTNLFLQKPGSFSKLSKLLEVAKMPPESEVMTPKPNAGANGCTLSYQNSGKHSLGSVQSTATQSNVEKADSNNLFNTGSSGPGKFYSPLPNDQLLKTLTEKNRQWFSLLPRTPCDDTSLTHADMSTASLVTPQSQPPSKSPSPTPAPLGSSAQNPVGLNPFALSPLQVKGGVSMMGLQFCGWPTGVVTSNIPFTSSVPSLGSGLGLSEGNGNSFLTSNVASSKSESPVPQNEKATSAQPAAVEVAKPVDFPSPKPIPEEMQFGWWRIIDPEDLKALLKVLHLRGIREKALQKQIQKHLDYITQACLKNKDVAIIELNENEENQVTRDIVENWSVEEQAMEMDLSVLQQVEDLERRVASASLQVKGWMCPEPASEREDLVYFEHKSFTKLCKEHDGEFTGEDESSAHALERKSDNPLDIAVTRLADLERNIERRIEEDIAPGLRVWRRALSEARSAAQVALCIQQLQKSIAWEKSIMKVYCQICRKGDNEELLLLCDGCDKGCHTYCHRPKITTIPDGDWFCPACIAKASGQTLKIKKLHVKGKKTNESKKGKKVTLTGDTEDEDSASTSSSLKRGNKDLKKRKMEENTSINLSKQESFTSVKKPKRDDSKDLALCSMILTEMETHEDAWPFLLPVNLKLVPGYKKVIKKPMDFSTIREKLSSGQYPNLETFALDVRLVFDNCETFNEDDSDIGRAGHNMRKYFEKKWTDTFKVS
How it was run: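 AlphaScreen displacement: compounds (up to 110uM) incubated 30 min at room temperature with a preformed 50 nM BAZ2B/50 nM biotinylated H3K14Ac peptide complex in PBS pH 7.4 with Tween-20. Donor and acceptor beads at 10 ug/mL final added, 20 min light-protected before reading.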
Note: nearly all actives have a fitted effect of over 60% in size.
Potency is the fitted concentration of half-maximal effect; tags give direction and shape of the fitted curve.

SMILES	Potency
O=S(=O)(Nc1ccncc1Cl)c1ccccc1	inconclusive: 3.55 µM [inhibitor, full curve, poor fit]
CCCCNc1nc2c(c(=O)n(Cc3ccc(Cl)c(Cl)c3)c(=O)n2C)n1C	inconclusive: 31.6 µM [inhibitor, full curve, poor fit]
COc1cc(CN2CCN(c3ccccc3C)CC2)cc([N+](=O)[O-])c1O	inconclusive: 89.1 µM [inhibitor, single point]
COCc1c(C(=O)N/N=C/c2ccco2)nnn1-c1nonc1N	inactive
COc1ccc(-c2csc(N(CCCN(C)C)C(=O)c3ccc(C(C)(C)C)cc3)n2)cc1	inconclusive: 3.98 µM [inhibitor, full curve, poor fit]
CCCCNc1nnc(Cc2ccc(Cl)cc2)c(=O)[nH]1	inconclusive: 89.1 µM [inhibitor, single point]
C/C(N=Nc1nc2ccccc2s1)=N\Nc1ccccc1O	inconclusive: 2.51 µM [inhibitor, full curve, poor fit]
CCOC(=O)c1ccc(NC(=S)NCCCn2ccnc2)cc1	active: 56.2 µM
COc1ccc(-c2noc(-c3ccc(N4CCC(C)CC4)c([N+](=O)[O-])c3)n2)cc1OC	inconclusive: 89.1 µM [inhibitor, single point]
OC[C@H]1OC(Nc2ccc(N=Nc3ccccc3)cc2)[C@@H](O)[C@@H](O)[C@@H]1O (stereo not given in full)	inconclusive: 39.8 µM [inhibitor, partial curve]
COc1ccc(/C=C/C(=O)Nc2ccc3nc(N4CCCCC4)cc(C)c3c2)cc1OC	inconclusive: 17.8 µM [inhibitor, full curve, poor fit]
CC(C)c1ccc(Nc2c(-c3ccco3)nc3ccccn23)cc1	inconclusive: 14.1 µM [inhibitor, full curve]
COc1ccccc1Nc1ccc(N)cc1	active: 28.2 µM
Cc1ccc(S(=O)(=O)N(CC(=O)Nc2ccc3c(c2)OCO3)c2ccc(C)c(Cl)c2)cc1	inconclusive: 20 µM [inhibitor, full curve]
Cc1ccc(N=Nc2c(N)n(-c3ccccc3)[nH]c2=O)cc1	inconclusive: 20 µM [inhibitor, full curve]
Cc1nc(C(=O)Nc2cccc(Cl)c2Cl)nn1-c1cc(OC(C)C)c(Cl)cc1Cl	inactive
O=C(O)c1cccc(N/N=C/c2ccc(OC(F)(F)F)cc2)c1	inconclusive: 70.8 µM [inhibitor, partial curve]
COc1ccc(/C(O)=C2/C(=O)C(=O)N(CCCC(=O)O)C2c2ccc(OC)c(OC)c2)cc1 (stereo not given)	inactive
O=C1c2ccccc2C(=O)c2c(Nc3ccc(CCO)cc3)ccc(O)c21	active: 1.78 µM
Oc1cc2ccccc2cc1-c1n[nH]c(=S)o1	inconclusive: 79.4 µM [inhibitor, single point]
CC(C)CCn1c(=S)[nH]c2ncccc2c1=O	inactive
C[C@H](N)c1nnc(SCC(=O)N(C)C)o1	inconclusive: 89.1 µM [inhibitor, single point]
Oc1ccc(N2CCN(c3ncnc4sc(-c5ccccc5)cc34)CC2)cc1	active: 39.8 µM
OC1CCCN(CC(O)COC(c2ccc(F)cc2)c2ccc(F)cc2)C1 (stereo not given)	active: 50.1 µM

SMILES	Potency
CC(OC(=O)CCCN=C1NS(=O)(=O)c2ccccc21)C(=O)N(C)c1ccccc1 (stereo not given)	inactive
CCCC1(C(=O)O)NC(c2ccccc2O)C2C(=O)N(Cc3ccccc3)C(=O)C21 (stereo not given)	inconclusive: 79.4 µM [inhibitor, single point]
CCOC(=O)C1CCN(S(=O)(=O)CCNC(=O)c2ccccc2)CC1	inactive
Cc1cc(C)c(C(=O)COc2cccnc2[N+](=O)[O-])cc1C	active: 50.1 µM
Cc1[nH]n(-c2ccccc2)c(=O)c1N=Nc1ccccc1C(=O)O	inconclusive: 20 µM [inhibitor, partial curve]
O=C(Nc1ccc2c(c1)nc1n2CCSC1)c1ccco1	inconclusive: 44.7 µM [inhibitor, partial curve]
CS(=O)(=O)c1ccc(Cl)c(NC(=O)C2CC(=O)N(Cc3ccccc3)C2)c1 (stereo not given)	inconclusive: 89.1 µM [inhibitor, single point]
CC1CCN(C(=O)C2CCN(C(=O)c3cc4sccc4n3Cc3ccc(F)cc3)CC2)CC1	inconclusive: 39.8 µM [inhibitor, partial curve]
COc1ccc(OC)c(NC(=S)N(CCc2c(C)[nH]c3ccccc23)Cc2cccs2)c1	inconclusive: 31.6 µM [inhibitor, full curve]
O=C(Nc1ccc(C(=O)N2CCN(c3ccccn3)CC2)cc1)c1ccc(Br)o1	inconclusive: 89.1 µM [inhibitor, single point]
CCN1/C(=C/c2ccc3cc(C)ccc3[n+]2CC)Sc2cc(C)ccc21	active: 39.8 µM
O=C(CSc1nc(-c2ccc(F)cc2)cs1)NC(=O)NCc1ccco1	active: 50.1 µM
O=C(NCC(c1cccs1)N1CCc2ccccc21)c1ccccc1 (stereo not given)	inconclusive: 7.94 µM [inhibitor, full curve, poor fit]
CCOC(=O)c1ccc(NC(=O)CCN2C(=O)C3CC=CCC3C2=O)cc1 (stereo not given)	inactive
Cc1ccc(NC(=S)N(N)CCO)cc1	active: 79.4 µM
COc1cccc(OC)c1OCc1cc(C2C3CCCC=C3C(C#N)=C(N)C2(C#N)C#N)c(C)cc1C (stereo not given)	inconclusive: 89.1 µM [inhibitor, single point]
CC(C)C(=O)N1CCN(c2ccccc2NC(=O)c2cc([N+](=O)[O-])ccc2N2CCOCC2)CC1	inconclusive: 56.2 µM [inhibitor, partial curve]
Cn1c(SCC(=O)N/N=C/c2ccc(O)c(O)c2)nc2ccccc21	inconclusive: 79.4 µM [inhibitor, single point]
CSc1ccc(CN2CCc3c([nH]c4ccccc34)C2)cc1	inconclusive: 25.1 µM [inhibitor, single point]
CCC1=Nc2ccccc2NC2=C1C(=O)CCC2	active: 50.1 µM
CCOc1ccc(NC(=O)Cn2cc(C(=O)c3ccc(CC)cc3)c(=O)c3ccc(C)nc32)cc1	inactive
O=C(NNS(=O)(=O)c1ccccc1)c1cc2cc3ccccc3nc2s1	inconclusive: 25.1 µM [inhibitor, partial curve]
CC(=O)C1=C(O)C(=O)N(Cc2ccccc2)C1c1ccc(Cl)cc1 (stereo not given)	inactive
CC1CCc2nc(NC(=O)c3ccc(N4C(=O)CCC4=O)cc3)sc2C1 (stereo not given)	inactive

SMILES	Potency
CC(C)(C)N1C(=O)c2ccc(C(=O)Nc3ccc(C(=O)O)cc3)cc2C1=O	inconclusive: 89.1 µM [inhibitor, single point]
Cc1ccc(C)c(NC(=O)CSc2ccc(-c3ccco3)nn2)c1	inactive
Cc1ccc(OCC(=O)c2cc(C)n(CC(F)(F)F)c2C)c([N+](=O)[O-])n1	inconclusive: 63.1 µM [inhibitor, partial curve]
COc1ccc(CC(=O)Nc2ccc(C)cc2O)cc1S(=O)(=O)N1CCOCC1	inconclusive: 89.1 µM [inhibitor, single point]
CCc1ccc(C(=O)/C=C/c2cnn(C)c2C)s1	inactive
CC1=C(C(=O)OC(C)C)C(c2ccc(N(C)C)cc2)C2=C(CC(C)(C)CC2=O)N1 (stereo not given)	inconclusive: 70.8 µM [inhibitor, single point]
Cc1ccc(C(=O)NCC(=O)OC(C)C(=O)Nc2ccc(N(C)C)cc2)cc1C (stereo not given)	inconclusive: 50.1 µM [inhibitor, partial curve]
O=c1[nH]c2ccc(NCc3ccccc3F)cc2[nH]1	inconclusive: 50.1 µM [inhibitor, partial curve]
CN(Cc1nc2ccccc2n1C)C(=O)c1cccs1	inactive
CCn1c(CNC(=O)C23CC4CC(CC(C4)C2)C3)nnc1SCC(=O)Nc1ccc(F)cc1	inactive
COc1ccc(OCCCC(=O)N(CCC2=CCCCC2)c2c(N)n(Cc3ccccc3)c(=O)[nH]c2=O)cc1	inactive
COc1ccc(CN2CCN(c3ccccc3OC)CC2)c(OC)c1	inconclusive: 89.1 µM [inhibitor, single point]
CCOc1ccc(-c2cc(C(=O)N3CCN(c4ccc(C)cc4)C(C)C3)c3ccccc3n2)cc1 (stereo not given)	inconclusive: 4.47 µM [inhibitor, full curve]
Cc1cccc(N2CCN(c3ncnc4c3c(-c3ccccc3)cn4-c3ccccc3)CC2C)c1 (stereo not given)	inconclusive: 3.55 µM [inhibitor, full curve]
CC(Sc1nnc(C2CC2)n1-c1ccccc1)C(=O)N1CCCC1 (stereo not given)	inconclusive: 89.1 µM [inhibitor, single point]
CC(C)c1ccc(N=C2N=C(N)c3ccccc32)cc1	inconclusive: 70.8 µM [inhibitor, single point]
COc1ccc(NC(=S)NC(NC(=O)CCl)C(Cl)(Cl)Cl)c([N+](=O)[O-])c1 (stereo not given)	inconclusive: 79.4 µM [inhibitor, single point]
CNc1ccc(/C=C/C(=O)c2ccc(C)cc2)cc1[N+](=O)[O-]	inconclusive: 7.08 µM [inhibitor, full curve]
CCn1c2ccccc2c2cc(CN3CCN(S(=O)(=O)CC)CC3)ccc21	active: 20 µM
O=C(Nc1cccc(N=Cc2cc(Cl)cc(Br)c2O)c1)c1ccco1	inconclusive: 44.7 µM [inhibitor, partial curve]
CCCCCOC(=O)C(C)c1c(C)[nH]c(=S)[nH]c1=O (stereo not given)	inactive
N#Cc1c(N(CCO)CCO)nc(N)c2c(N)nc3c(c12)CC(=O)N3Cc1cccs1	inconclusive: 70.8 µM [inhibitor, partial curve]

Reference: PubChem BioAssay AID504333 (National Center for Advancing Translational Sciences (NCATS), 2011)
